Measurements taken from a collection of fitness landscapes (doi:10.1126/science.1257360).
This is one part of the list.

B1: PhoQ; a variant is named by its letters at X, in order, P23837 (parent)
chain: MKKLLRLFFPLSLRVRFLLATAAVVLVLSLAYGMVALIGYSVSFDKTTFRLLRGESNLFYTLAKWENNKLHVELPENIDKQSPTMTLIYDENGQLLWAQRDVPWLMKMIQPDWLKSNGFHEIEADVNDTSLLLSGDHSIQQQLQEVREDDDDAEMTHSVAVNVYPATSRMPKLTIVVVDTIPVELKSSYMVWSWFIYVLSANLLLVIPLLWVAAWWSLRPIEALAKEVRELEEHNRELLNPATTRELTSLVRNLNRLLKSERERYDKYRTTLTDLTHSLKTPLXXLQXXLRSLRSEKMSVSDAEPVMLEQISRISQQIGYYLHRASMRGGTLLSRELHPVAPLLDNLTSALNKVYQRKGVNISLDISPEISFVGEQNDFVEVMGNVLDNACKYCLEFVEISARQTDEHLYIVVEDDGPGIPLSKREVIFDRGQRVDTLRPGQGVGLAVAREITEQYEGKIVAGESMLGGARMEVIFGRQHSAPKDE

Variants of: B1
Test: enrichment ratio after two sorts for PhoP signalling (ratio (wild type AVST 3.29)); higher = more functional
Conditions: with PhoP (E. coli)

First: SDAM
Second: DQWM
The enrichment ratio of the first is higher: 2.28 for the first, ≤ 0.25 for the second.

GWHF and DLLW cannot be ordered by enrichment ratio: ≤ 0.25 for the first, ≤ 0.25 for the second.

CTFD and AWNP cannot be ordered by enrichment ratio: ≤ 0.25 for the first, ≤ 0.25 for the second.

RWVR and EGLC cannot be ordered by enrichment ratio: ≤ 0.25 for the first, ≤ 0.25 for the second.

TQWW and ESHH cannot be ordered by enrichment ratio: ≤ 0.25 for the first, ≤ 0.25 for the second.

Compared with TLQF, RCHL is lower in enrichment ratio: 15.7 for the first, ≤ 0.25 for the second.

YCQS and IRSA cannot be ordered by enrichment ratio: ≤ 0.25 for the first, ≤ 0.25 for the second.

First: EIFI
Second: SNSC
The enrichment ratio of the first is lower: ≤ 0.25 for the first, 8 for the second.

DTEE and HKLK cannot be ordered by enrichment ratio: ≤ 0.25 for the first, ≤ 0.25 for the second.

PLVW and LTYK cannot be ordered by enrichment ratio: ≤ 0.25 for the first, ≤ 0.25 for the second.

Compared with QSLV, FLCS is lower in enrichment ratio: 1.11 for the first, ≤ 0.25 for the second.

FPRC and WHQR cannot be ordered by enrichment ratio: ≤ 0.25 for the first, ≤ 0.25 for the second.

Compared with SMVA, HRGC is lower in enrichment ratio: 0.7 for the first, ≤ 0.25 for the second.

ADPW and DSID cannot be ordered by enrichment ratio: ≤ 0.25 for the first, ≤ 0.25 for the second.

NGWP and THSK cannot be ordered by enrichment ratio: ≤ 0.25 for the first, ≤ 0.25 for the second.

MHAK and DDHS cannot be ordered by enrichment ratio: ≤ 0.25 for the first, ≤ 0.25 for the second.

LDSP and MRNP cannot be ordered by enrichment ratio: ≤ 0.25 for the first, ≤ 0.25 for the second.

DSLD and KYDW cannot be ordered by enrichment ratio: ≤ 0.25 for the first, ≤ 0.25 for the second.

ICYS and RPKP cannot be ordered by enrichment ratio: ≤ 0.25 for the first, ≤ 0.25 for the second.

QTNA and PMFE cannot be ordered by enrichment ratio: ≤ 0.25 for the first, ≤ 0.25 for the second.

HRNI and WGEY cannot be ordered by enrichment ratio: ≤ 0.25 for the first, ≤ 0.25 for the second.

KRPF and RVAQ cannot be ordered by enrichment ratio: ≤ 0.25 for the first, ≤ 0.25 for the second.

First: QCLM
Second: MEFC
The enrichment ratio of the first is lower: ≤ 0.25 for the first, 12.8 for the second.

MDQS and SSRE cannot be ordered by enrichment ratio: ≤ 0.25 for the first, ≤ 0.25 for the second.

KFWH and AKTR cannot be ordered by enrichment ratio: ≤ 0.25 for the first, ≤ 0.25 for the second.

First: TVGC
Second: QTMD
The enrichment ratio of the first is higher: 6.28 for the first, ≤ 0.25 for the second.

HMKT and KMYW cannot be ordered by enrichment ratio: ≤ 0.25 for the first, ≤ 0.25 for the second.

DFMG and PEHP cannot be ordered by enrichment ratio: ≤ 0.25 for the first, ≤ 0.25 for the second.

LAEM and AGHN cannot be ordered by enrichment ratio: ≤ 0.25 for the first, ≤ 0.25 for the second.

ALFG and QAKY cannot be ordered by enrichment ratio: ≤ 0.25 for the first, ≤ 0.25 for the second.

FFHL and IVQG cannot be ordered by enrichment ratio: ≤ 0.25 for the first, ≤ 0.25 for the second.

Compared with YGFR, MGFT is higher in enrichment ratio: ≤ 0.25 for the first, 1.76 for the second.

PHGN and FMTG cannot be ordered by enrichment ratio: ≤ 0.25 for the first, ≤ 0.25 for the second.

HRRN and INNL cannot be ordered by enrichment ratio: ≤ 0.25 for the first, ≤ 0.25 for the second.

LVWL and HLRK cannot be ordered by enrichment ratio: ≤ 0.25 for the first, ≤ 0.25 for the second.

TFED and QVFE cannot be ordered by enrichment ratio: ≤ 0.25 for the first, ≤ 0.25 for the second.

VGNQ and ITDQ cannot be ordered by enrichment ratio: ≤ 0.25 for the first, ≤ 0.25 for the second.

FIGM and KSQW cannot be ordered by enrichment ratio: ≤ 0.25 for the first, ≤ 0.25 for the second.

AEYA and HEPY cannot be ordered by enrichment ratio: ≤ 0.25 for the first, ≤ 0.25 for the second.

SMYD and QKLW cannot be ordered by enrichment ratio: ≤ 0.25 for the first, ≤ 0.25 for the second.

Going from AVAR to WMPQ, the enrichment ratio falls from 9.7 to ≤ 0.25.

DGWS and DSKN cannot be ordered by enrichment ratio: ≤ 0.25 for the first, ≤ 0.25 for the second.
